Whole data set: some 2,900 compounds, median “NF-kB SEAP reporter activity, fold change vs agonist alone” near 0.99, cut for the highest 2% near 2.6. The list shows a part of the results.
Assays:
[1] = test system: RAW-Dual; test: NF-kB SEAP reporter activity, fold change vs agonist alone; cytotoxicity flag (confluency mask): not cytotoxic; higher = enhanced NF-kB activity
How it was run: (§1)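 Reporter activity is given as fold change relative to agonist-alone wells. To measure it, 50 nL of library stock was pin-tooled onto RAW-Dual macrophages (50,000 cells/well, DMEM, 384-well plates), a PRR agonist followed 1 h later, and cells stayed at 37 °C, 5% CO2. Twenty hours on, supernatant was assayed for IRF (QuantiLuc luminescence) and NF-κB (QuantiBlue, 620 nm absorbance), and wells under 70% of agonist-control IncuCyte confluency in both mask sets were marked cytotoxic.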

[2] = test system: RAW-Dual; test: NF-kB SEAP reporter activity, fold change vs agonist alone; higher = enhanced NF-kB activity; conditions: library stock concentration (final ~1000-fold dilution): 10 mM
How it was run: as §1

[3] = test system: RAW-Dual; test: NF-kB SEAP reporter activity, fold change vs agonist alone; cytotoxicity flag (confluency mask): cytotoxic (confluency <70% of control); higher = enhanced NF-kB activity
How it was run: as §1

[4] = agonist: ODN 1826 (TLR9) 0.5 ug/mL
[5] = agonist: Pam2CSK4 (TLR2/6) 0.1 ug/mL
[6] = agonist: Pam3CSK4 (TLR2/1) 0.1 ug/mL
[7] = cytotoxicity flag (confluency mask): not cytotoxic, agonist: Imiquimod (TLR7) […]
[8] = cytotoxicity flag (confluency mask): not cytotoxic, agonist: MPLA (TLR4) […]
[9] = cytotoxicity flag (confluency mask): cytotoxic (confluency <70% of control), agonist: Imiquimod (TLR7) […]
[10] = cytotoxicity flag (confluency mask): cytotoxic (confluency <70% of control), agonist: MPLA (TLR4) […]

CC1(C)OC2CC(=O)OCC23C1CC(=O)C1(C)C3CCC2(C)C(c3ccoc3)OC(=O)C3OC321 (stereo not drawn) (library stock concentration (final ~1000-fold dilution): 10 mM)
NF-kB SEAP reporter activity ([1]; agonist: LPS (TLR4) 0.1 ug/mL): 0.941
NF-kB SEAP reporter activity [1, 4]: 0.968
NF-kB SEAP reporter activity [1, 5]: 1.1
NF-kB SEAP reporter activity [1, 6]: 1.12

CC1(C)OC2CC(=O)OCC23C1CC(=O)C1(C)C3CCC2(C)C(c3ccoc3)OC(=O)C3OC321 (stereo not drawn)
NF-kB SEAP reporter activity [2, 7]: 0.952
NF-kB SEAP reporter activity [2, 8]: 1.02

CC(NCc1ccc(OCc2cccc(F)c2)cc1)C(N)=O.CS(=O)(=O)O (stereo not drawn) (library stock concentration (final ~1000-fold dilution): 10 mM)
NF-kB SEAP reporter activity ([1]; agonist: LPS (TLR4) 0.1 ug/mL): 1.08
NF-kB SEAP reporter activity [1, 4]: 1.17
NF-kB SEAP reporter activity [1, 5]: 0.813
NF-kB SEAP reporter activity [1, 6]: 1.1

CC(NCc1ccc(OCc2cccc(F)c2)cc1)C(N)=O.CS(=O)(=O)O (stereo not drawn)
NF-kB SEAP reporter activity [2, 7]: 1.73
NF-kB SEAP reporter activity [2, 8]: 1.07

C[N+]1(C)C2CC(OC(=O)C(O)(c3cccs3)c3cccs3)CC1C1OC12 (stereo not drawn)
NF-kB SEAP reporter activity [2, 7]: 1.28
NF-kB SEAP reporter activity [2, 8]: 1.02

C[N+]1(C)C2CC(OC(=O)C(O)(c3cccs3)c3cccs3)CC1C1OC12 (stereo not drawn) (library stock concentration (final ~1000-fold dilution): 10 mM)
NF-kB SEAP reporter activity ([1]; agonist: LPS (TLR4) 0.1 ug/mL): 0.892
NF-kB SEAP reporter activity [1, 4]: 1.02
NF-kB SEAP reporter activity [1, 5]: 1.01
NF-kB SEAP reporter activity [1, 6]: 1.12

O=C(O)CCNc1cc(N2CCc3ccccc3CC2)nc(-c2ccccn2)n1 (library stock concentration (final ~1000-fold dilution): 10 mM)
NF-kB SEAP reporter activity ([1]; agonist: LPS (TLR4) 0.1 ug/mL): 0.801
NF-kB SEAP reporter activity [1, 4]: 0.993
NF-kB SEAP reporter activity [1, 5]: 0.889
NF-kB SEAP reporter activity [1, 6]: 0.929

O=C(O)CCNc1cc(N2CCc3ccccc3CC2)nc(-c2ccccn2)n1
NF-kB SEAP reporter activity [2, 7]: 0.904
NF-kB SEAP reporter activity [2, 8]: 0.904

Cl.Cl.Fc1ccc(C(c2ccc(F)cc2)N2CCN(C/C=C/c3ccccc3)CC2)cc1
NF-kB SEAP reporter activity [2, 7]: 1.99
NF-kB SEAP reporter activity [2, 8]: 1.65

Cl.Cl.Fc1ccc(C(c2ccc(F)cc2)N2CCN(C/C=C/c3ccccc3)CC2)cc1 (library stock concentration (final ~1000-fold dilution): 10 mM)
NF-kB SEAP reporter activity ([1]; agonist: LPS (TLR4) 0.1 ug/mL): 2.45
NF-kB SEAP reporter activity [1, 4]: 1.44
NF-kB SEAP reporter activity [1, 5]: 0.829
NF-kB SEAP reporter activity [1, 6]: 1.09

CC(C)c1cnn2c(NCc3ccccc3)cc(NCCCCCCN)nc12.Cl
NF-kB SEAP reporter activity [2, 9]: 2.18
NF-kB SEAP reporter activity [2, 10]: 0.882

CC(C)c1cnn2c(NCc3ccccc3)cc(NCCCCCCN)nc12.Cl (library stock concentration (final ~1000-fold dilution): 10 mM)
NF-kB SEAP reporter activity ([3]; agonist: LPS (TLR4) 0.1 ug/mL): 0.271
NF-kB SEAP reporter activity [3, 4]: 0.234
NF-kB SEAP reporter activity [3, 5]: 1.08
NF-kB SEAP reporter activity [3, 6]: 1.5

CCNC(=O)c1cc2c(-c3cc(C(C)(C)O)ccc3Oc3c(C)cc(F)cc3C)cn(C)c(=O)c2[nH]1
NF-kB SEAP reporter activity [2, 9]: 1.4
NF-kB SEAP reporter activity [2, 10]: 1.84

CCNC(=O)c1cc2c(-c3cc(C(C)(C)O)ccc3Oc3c(C)cc(F)cc3C)cn(C)c(=O)c2[nH]1 (library stock concentration (final ~1000-fold dilution): 10 mM)
NF-kB SEAP reporter activity ([3]; agonist: LPS (TLR4) 0.1 ug/mL): 0.903
NF-kB SEAP reporter activity [3, 4]: 1.34
NF-kB SEAP reporter activity [3, 5]: 0.318
NF-kB SEAP reporter activity [3, 6]: 0.842

Cc1cc([N+](=O)[O-])ccc1NS(=O)(=O)c1cc(Cl)ccc1Cl
NF-kB SEAP reporter activity [2, 7]: 1.01
NF-kB SEAP reporter activity [2, 8]: 1.41

Cc1cc([N+](=O)[O-])ccc1NS(=O)(=O)c1cc(Cl)ccc1Cl (library stock concentration (final ~1000-fold dilution): 10 mM)
NF-kB SEAP reporter activity ([1]; agonist: LPS (TLR4) 0.1 ug/mL): 3.09
NF-kB SEAP reporter activity [1, 4]: 0.67
NF-kB SEAP reporter activity [1, 5]: 0.323
NF-kB SEAP reporter activity [1, 6]: 0.349

C=CC(=O)N1CCCC(n2nc(-c3ccc(Oc4ccccc4)cc3)c3c(N)ncnc32)C1 (stereo not drawn) (library stock concentration (final ~1000-fold dilution): 10 mM)
NF-kB SEAP reporter activity ([1]; agonist: LPS (TLR4) 0.1 ug/mL): 0.397
NF-kB SEAP reporter activity [1, 4]: 0.575
NF-kB SEAP reporter activity [1, 5]: 0.352
NF-kB SEAP reporter activity [1, 6]: 0.557

C=CC(=O)N1CCCC(n2nc(-c3ccc(Oc4ccccc4)cc3)c3c(N)ncnc32)C1 (stereo not drawn)
NF-kB SEAP reporter activity [2, 7]: 1.27
NF-kB SEAP reporter activity [2, 8]: 0.621

COc1ccc(COc2ccc(Cc3cnc(N)nc3N)cc2OC)cc1
NF-kB SEAP reporter activity [2, 7]: 0.936
NF-kB SEAP reporter activity [2, 8]: 1.07

COc1ccc(COc2ccc(Cc3cnc(N)nc3N)cc2OC)cc1 (library stock concentration (final ~1000-fold dilution): 10 mM)
NF-kB SEAP reporter activity ([1]; agonist: LPS (TLR4) 0.1 ug/mL): 0.815
NF-kB SEAP reporter activity [1, 4]: 0.76
NF-kB SEAP reporter activity [1, 5]: 0.875
NF-kB SEAP reporter activity [1, 6]: 0.899

CN(C)CCSSCCNC(=O)C1CCN(C(=O)CSc2ccc(Cl)cc2)CC1.O=C(O)C(F)(F)F
NF-kB SEAP reporter activity [2, 7]: 1.07
NF-kB SEAP reporter activity [2, 8]: 1.24

CN(C)CCSSCCNC(=O)C1CCN(C(=O)CSc2ccc(Cl)cc2)CC1.O=C(O)C(F)(F)F (library stock concentration (final ~1000-fold dilution): 10 mM)
NF-kB SEAP reporter activity ([1]; agonist: LPS (TLR4) 0.1 ug/mL): 1.41
NF-kB SEAP reporter activity [1, 4]: 1.38
NF-kB SEAP reporter activity [1, 5]: 1.09
NF-kB SEAP reporter activity [1, 6]: 1.68

O=C(O)c1cc2ccccc2[nH]1
NF-kB SEAP reporter activity [2, 7]: 0.909
NF-kB SEAP reporter activity [2, 8]: 1.08

O=C(O)c1cc2ccccc2[nH]1 (library stock concentration (final ~1000-fold dilution): 10 mM)
NF-kB SEAP reporter activity ([1]; agonist: LPS (TLR4) 0.1 ug/mL): 0.919
NF-kB SEAP reporter activity [1, 4]: 0.947
NF-kB SEAP reporter activity [1, 5]: 1.07
NF-kB SEAP reporter activity [1, 6]: 0.965

Cc1cc(Cn2cnc3c2CC(C(=O)O)N(C(=O)C(c2ccccc2)c2ccccc2)C3)ccc1N(C)C (stereo not drawn)
NF-kB SEAP reporter activity [2, 7]: 0.927
NF-kB SEAP reporter activity [2, 8]: 1.02

Cc1cc(Cn2cnc3c2CC(C(=O)O)N(C(=O)C(c2ccccc2)c2ccccc2)C3)ccc1N(C)C (stereo not drawn) (library stock concentration (final ~1000-fold dilution): 10 mM)
NF-kB SEAP reporter activity ([1]; agonist: LPS (TLR4) 0.1 ug/mL): 0.968
NF-kB SEAP reporter activity [1, 4]: 1
NF-kB SEAP reporter activity [1, 5]: 1.01
NF-kB SEAP reporter activity [1, 6]: 0.945

— the supplement of paper PMC10037445
